Structures are written as SMILES. The whole screen tested about 310,000 compounds, of which about 2,200 (0.71%) showed an effect of 50% or more. The effect is printed as a negative number. This is one part of the list.

Sequence of human ether-à-go-go-related gene (hERG) potassium channel (Q12809 whole entry, looked up): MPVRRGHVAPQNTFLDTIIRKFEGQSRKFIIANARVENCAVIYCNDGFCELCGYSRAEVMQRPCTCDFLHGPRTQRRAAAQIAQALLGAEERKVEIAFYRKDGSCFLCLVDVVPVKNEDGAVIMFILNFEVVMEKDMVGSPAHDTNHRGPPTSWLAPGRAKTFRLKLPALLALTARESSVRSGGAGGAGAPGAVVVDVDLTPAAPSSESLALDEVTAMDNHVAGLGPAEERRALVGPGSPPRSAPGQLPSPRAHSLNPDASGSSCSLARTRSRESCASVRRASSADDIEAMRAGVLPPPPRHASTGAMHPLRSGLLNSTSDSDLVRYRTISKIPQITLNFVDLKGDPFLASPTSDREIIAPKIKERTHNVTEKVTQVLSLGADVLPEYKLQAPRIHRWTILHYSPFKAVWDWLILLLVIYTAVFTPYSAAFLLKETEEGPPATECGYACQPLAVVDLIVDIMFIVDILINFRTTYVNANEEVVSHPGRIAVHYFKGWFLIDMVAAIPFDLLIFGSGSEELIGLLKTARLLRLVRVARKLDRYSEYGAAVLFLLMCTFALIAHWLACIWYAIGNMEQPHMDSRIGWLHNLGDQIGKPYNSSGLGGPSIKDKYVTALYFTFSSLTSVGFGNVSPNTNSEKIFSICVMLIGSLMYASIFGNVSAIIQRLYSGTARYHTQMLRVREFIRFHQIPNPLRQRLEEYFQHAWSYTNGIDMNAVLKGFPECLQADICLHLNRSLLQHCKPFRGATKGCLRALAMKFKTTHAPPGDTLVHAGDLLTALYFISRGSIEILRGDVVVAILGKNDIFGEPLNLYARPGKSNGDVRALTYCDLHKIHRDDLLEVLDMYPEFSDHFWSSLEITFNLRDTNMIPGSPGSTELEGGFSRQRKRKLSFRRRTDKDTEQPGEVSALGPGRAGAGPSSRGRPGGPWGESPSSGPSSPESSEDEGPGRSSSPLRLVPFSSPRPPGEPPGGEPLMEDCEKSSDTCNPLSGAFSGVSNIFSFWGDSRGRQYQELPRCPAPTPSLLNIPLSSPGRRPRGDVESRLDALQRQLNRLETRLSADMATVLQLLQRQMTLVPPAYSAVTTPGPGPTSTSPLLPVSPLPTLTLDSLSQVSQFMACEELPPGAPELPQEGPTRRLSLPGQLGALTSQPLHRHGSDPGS

This assay concerns the target human ether-à-go-go-related gene (hERG) potassium channel (human, UniProt Q12809). The assay is described as follows: primary screen, population patch clamp on CHO cells stably expressing hERG.
In the case of `CC(=O)C1=C(O)CCCC1=NCc1nc2ccccc2[nH]1`, the “hERG current change (%, negative = inhibition) at 1uM” value worked out at 12.3%.

As for `O=C(COC(=O)C12CC3CC(CC(C3)C1)C2)NCc1ccco1`, the “hERG current change (%, negative = inhibition) at 1uM” value is -0.748%.

In the case of `CCC1(c2ccccc2)NC(=O)N(CC(=O)N(C)CC(=O)Nc2cccc(F)c2)C1=O` (stereo not drawn), the “hERG current change (%, negative = inhibition) at 1uM” value worked out at 12.4%.

With `Cc1nc(C)c(-c2ccc(SCC(=O)Nc3cccc(Cl)c3C)nn2)s1`, the “hERG current change (%, negative = inhibition) at 1uM” value amounted to 10.4%.

As for `CCN(C(=O)COC(=O)CCC(=O)c1ccccc1)c1c(N)n(Cc2ccccc2)c(=O)[nH]c1=O`, the “hERG current change (%, negative = inhibition) at 1uM” value was determined as 13.4%.

In the case of `COc1cccc(-n2c(=O)n(Cc3ccccc3)c(=O)c3[nH]cnc32)c1`, the “hERG current change (%, negative = inhibition) at 1uM” value is 7.22%.

For the compound `COc1cccc(NC(=O)CSc2nnc3cc(C)nc(N)n23)c1`, the “hERG current change (%, negative = inhibition) at 1uM” value was 9.33%.

For the compound `O=C(COc1ccc2ccccc2c1)NNC(=O)Nc1ccc(F)cc1F`, the “hERG current change (%, negative = inhibition) at 1uM” value was found to be 12.5%.

With `COc1ccc(OC)c(NC(=O)C2CCCCC2C(=O)O)c1` (stereo not drawn), the “hERG current change (%, negative = inhibition) at 1uM” value worked out at 6.86%.

In the case of `COc1ccccc1NC(=O)N1CCN(c2ccc(F)cc2)CC1`, the “hERG current change (%, negative = inhibition) at 1uM” value was 0.344%.

For `Cc1cccc(NC(=S)NCCN2CCOCC2)c1`, the “hERG current change (%, negative = inhibition) at 1uM” value came out at 5.19%.

On to `O=C(NC1CCc2ccccc21)c1cc(COc2ccc(F)cc2F)on1` (stereo not drawn), for which the “hERG current change (%, negative = inhibition) at 1uM” value is 15.5%.

As to `COc1ccc(S(=O)(=O)N(C)CC(=O)NCCN2CCOCC2)cc1Cl`, the “hERG current change (%, negative = inhibition) at 1uM” value was determined as 9.74%.

Take `O=C1CC(c2ccccc2)CC(O)=C1C=NC1CCCCC1` (stereo not drawn): the “hERG current change (%, negative = inhibition) at 1uM” value was -8.72%.

`Cc1cccn(Cc2c(F)cccc2Cl)c1=O`: the “hERG current change (%, negative = inhibition) at 1uM” value is on record as 9.07%.

Turning to `Cc1ccc(C(=O)NC(=S)Nc2ccccc2N2CCCC2)cc1[N+](=O)[O-]`, the “hERG current change (%, negative = inhibition) at 1uM” value came out at 7.01%.

On to `CN(C)c1nc2c(c(=O)n(C)c(=O)n2C)n1Cc1ccccc1`, for which the “hERG current change (%, negative = inhibition) at 1uM” value is given as -0.913%.

As to `CCCc1cc(=O)oc2cc(C)cc(O)c12`, the “hERG current change (%, negative = inhibition) at 1uM” value was 4.71%.

For the compound `O=C(CSc1nnc(CNC(=O)c2cccs2)o1)NC1CCCC1`, the “hERG current change (%, negative = inhibition) at 1uM” value is 3.8%.

For the compound `O=C(Nc1ccccc1Cc1ccccc1)c1ccccc1NS(=O)(=O)c1ccc(Cl)s1`, the “hERG current change (%, negative = inhibition) at 1uM” value worked out at 4.17%.

In the case of `COc1c(O)cc2oc(-c3ccc(O)cc3)cc(=O)c2c1O`, the “hERG current change (%, negative = inhibition) at 1uM” value was 8.67%.

As for `O=C(N/N=C/c1oc(O)c2ccccc12)c1ccccc1O`, the “hERG current change (%, negative = inhibition) at 1uM” value is listed as 7.69%.

For the compound `Cc1cc(C)c(S(=O)(=O)Nc2cccc3nsnc23)c(C)c1`, the “hERG current change (%, negative = inhibition) at 1uM” value is 4.84%.

On to `Clc1ccc(CSc2nnc(-c3cccnc3)o2)cc1`, for which the “hERG current change (%, negative = inhibition) at 1uM” value is on record as 0.623%.

For the compound `COc1cc(NC(C)CCCN)c2ncccc2c1.O=P(O)(O)O` (stereo not drawn), the “hERG current change (%, negative = inhibition) at 1uM” value amounted to 7.15%.

As to `Cn1c(SCn2nnc3ccccc3c2=O)nc2ccccc2c1=O`, the “hERG current change (%, negative = inhibition) at 1uM” value turned out to be 18.4%.

For the compound `Cc1cccnc1NC(=O)c1ccc2c(c1)OCCO2`, the “hERG current change (%, negative = inhibition) at 1uM” value stood at 12.3%.

On to `O=C(CN1CCN(c2ccccc2F)CC1)c1ccc(O)c(O)c1`, for which the “hERG current change (%, negative = inhibition) at 1uM” value was -16.6%.

Regarding `Cc1nn(-c2ccccc2)c(C)c1C(=O)OCC(=O)NC12CC3CC(CC(C3)C1)C2`, the “hERG current change (%, negative = inhibition) at 1uM” value was 13.2%.

In the case of `Cc1nnc(SCC(=O)NC2CC2)n1CC1CCCO1` (stereo not drawn), the “hERG current change (%, negative = inhibition) at 1uM” value is given as 9.24%.

With `CC(=O)N(Cc1cc(=O)[nH]c2ccccc12)c1ccc(C)cc1C`, the “hERG current change (%, negative = inhibition) at 1uM” value is 13%.

As to `CCCN1C(=O)N(c2cccc(C)c2)C(C)(O)CC1(C)C` (stereo not drawn), the “hERG current change (%, negative = inhibition) at 1uM” value is 8.46%.

On to `O=C(COC(=O)/C=C/c1ccco1)Nc1cccc([N+](=O)[O-])c1`, for which the “hERG current change (%, negative = inhibition) at 1uM” value is listed as 20.3%.

For the compound `O=C(COC(=O)c1c2c(nc3ccccc13)CCN(Cc1ccccc1)C2)Nc1c(F)cccc1F`, the “hERG current change (%, negative = inhibition) at 1uM” value was -20.2%.

As to `Cc1[nH]c2ccccc2c1/C=N/NC(=O)CNC(=O)COc1ccccc1`, the “hERG current change (%, negative = inhibition) at 1uM” value stood at 20.7%.

On to `CC([NH2+][O-])C(C)(C)NO.[Cl-]` (stereo not drawn), for which the “hERG current change (%, negative = inhibition) at 1uM” value came to 4.02%.

For the compound `O=S(=O)(c1ccc(S(=O)(=O)N2CCCC2)cc1)N1CCCCC1`, the “hERG current change (%, negative = inhibition) at 1uM” value is 12.8%.

In the case of `CCc1sc(C(=O)Nc2ncccc2C)cc1C`, the “hERG current change (%, negative = inhibition) at 1uM” value amounted to 17.3%.

Take `O=S(=O)(Nc1cccc(CO)c1)c1cccs1`: the “hERG current change (%, negative = inhibition) at 1uM” value was 6.77%.

Regarding `Cc1ccc(S(=O)(=O)NCCn2cnc([N+](=O)[O-])n2)cc1`, the “hERG current change (%, negative = inhibition) at 1uM” value turned out to be 12.2%.

For the compound `N#CC1(c2ccccc2)CCCN1C(=O)c1ccc(Br)cc1` (stereo not drawn), the “hERG current change (%, negative = inhibition) at 1uM” value is reported as 0.778%.

Take `O=C(COc1ccccc1[N+](=O)[O-])N1CCN(S(=O)(=O)c2ccccc2)CC1`: the “hERG current change (%, negative = inhibition) at 1uM” value is -10.5%.

For `Cc1cccc(-c2nc(CS(=O)CC(=O)N3CC(C)CC(C)C3)c(C)o2)c1` (stereo not drawn), the “hERG current change (%, negative = inhibition) at 1uM” value is recorded as 0.514%.

`Cn1ccnc1SCC(=O)Nc1ccc2nc(SCC(=O)NC3CC3)sc2c1`: the “hERG current change (%, negative = inhibition) at 1uM” value was determined as 7%.

With `Cc1ccc(C2(C)NC(=O)N(CC(=O)Nc3ccccc3C(=O)NC3CCCC3)C2=O)cc1` (stereo not drawn), the “hERG current change (%, negative = inhibition) at 1uM” value is reported as -2.04%.

The values above are taken from article PMC4336329 (PLoS ONE, 2015).
